# Source: PubChem BioAssay AID1745853 (National Center for Advancing Translational Sciences (NCATS), 2022)
# “And” between values parts separate entries of the source, which are not always exact repeats. Equal values may be shown once. Some of the results follow. The main result of the screen is listed elsewhere. These columns were measured beside it and carry no call.
# How the values were obtained:
# Experiment in all cases: Primary Screen for Target Class Profiling of Small Molecule Inhibitors of Methyltransferases
# [1] = molecular target: Glycine N-methyltransferase (Homo sapiens) (UniProt Q14749); details: purified enzyme, MTase-Glo SAH luminescence; measured here: GNMT inhibition; at 40 µM; stronger effect = lower value
# Method in brief: (§1)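 Each enzyme was reacted with SAM and its substrate, with compounds tested once at 40 uM; SAH formed was read by MTase-Glo luminescence.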
# [2] = molecular target: Guanidinoacetate N-methyltransferase (Homo sapiens) (UniProt Q14353); details: purified enzyme, MTase-Glo SAH luminescence; measured here: GAMT inhibition; at 40 µM; stronger effect = lower value
# Method in brief: as §1
# [3] = molecular target: Histamine N-methyltransferase (Homo sapiens) (UniProt P50135); details: purified enzyme, MTase-Glo SAH luminescence; measured here: HNMT inhibition; at 40 µM; stronger effect = lower value
# Method in brief: as §1
# [4] = molecular target: Nicotinamide N-methyltransferase (Homo sapiens) (UniProt P40261); details: purified enzyme, MTase-Glo SAH luminescence; measured here: NNMT inhibition; at 40 µM; stronger effect = lower value
# Method in brief: as §1
# [5] = molecular target: Phenylethanolamine N-methyltransferase (Homo sapiens) (UniProt P11086); details: purified enzyme, MTase-Glo SAH luminescence; measured here: PNMT inhibition; at 40 µM; stronger effect = lower value
# Method in brief: as §1
# On the % scale 0 is the no-effect control and ±100 the full control effect.
Compound,"activity change, negative = inhibition [1]","activity change, negative = inhibition [2]","activity change, negative = inhibition [3]","activity change, negative = inhibition [4]","activity change, negative = inhibition [5]"
Cc1cc(C)c2c(N3CCCC(OCc4cccnc4)C3)ncnc2n1 (configuration not stated),-14.3%,-6.7%,-10.4%,-13.4%,-6.84%
CCS(=O)(=O)Nc1ccc(C)n(CC(=O)N(C)Cc2ccccc2)c1=O,-5.31%,-3.98%,-0.946%,-3.6%,-2.82%
NCCCC[C@H](NC(=O)[C@@H]1Cc2ccccc2CN1C(=O)CCC(=O)c1ccccc1)C(=O)NCC(c1ccccc1)c1ccccc1,1.54%,3.58%,4.47%,-16.4%,3.09%
O=C(c1nc(-c2cc(Cl)cc(Cl)c2)c2ccccn12)N1CCCC1,-6.41%,-8.67%,-4.04%,-32.8%,-7.18%
COc1ccc(CCNc2nc3c(-c4cccc(F)c4)nnn3c3ccccc23)cc1OC,-34.9%,-2.74%,-2.46%,-15.6%,-4.64%
CC(=O)OCC(=O)[C@@]1(O)CC[C@H]2[C@@H]3CCC4=CC(=O)CC[C@]4(C)[C@H]3C(=O)C[C@@]21C,1.86%,8.1%,0.807%,-5.99%,-0.573%
CN1C(=O)c2cc(C(=O)NCCCN3CCCCC3)nn2CC1(C)C(=O)NC1CCCCC1 (configuration not stated),2.38%,5.89%,-3.93%,6.01%,0.153%
CCCC1c2cccn2CCN1C(=O)Nc1ccc(C)c(F)c1 (configuration not stated),-5.79%,0.704%,-22.4%,-7.65%,1.72%
CC(C)CCn1c(=O)c2ccc(C(=O)NC3CCCCC3)cc2n2c(=O)n(CC(=O)NC(C)C)nc12,0.801%,3.7%,-0.504%,-5.51%,-1.49%
O=C(NC1CC1)c1nc(-c2cccnc2)c2cnccn12,-6.33%,-1.09%,-3.26%,-12.9%,1.08%
Cn1cc(CNC(=O)C[C@@H]2C[C@H]3O[C@H](CNC4CCCC4)[C@@H](O)[C@H]3O2)cn1,1.28%,2.08%,3.06%,-2.5%,2.2%
CCc1nc(C(N)=O)c(Nc2ccc(N3CCC(N4CCN(C)CC4)CC3)c(OC)c2)nc1NC1CCOCC1,-52.8%,-8.17%,-57.1%,-18.3%,-20.1%
Cn1cc(C(=O)OCC2CCN(CCNS(C)(=O)=O)CC2)c2ccccc21,2.11%,6.64%,1.78%,-6.97%,1.12%
CC1CCCCN1Cc1nnc2cc(-c3nc(-c4ccccc4)no3)ccn12 (configuration not stated),-1.23%,1.91%,0.105%,-0.225%,13.4%
CN(C1CCCc2ccccc21)S(=O)(=O)c1cccc(C(F)(F)F)c1 (configuration not stated),-4.45%,-2.24%,-0.431%,-9.96%,-4.87%
CC1(C)NC(=O)N(CC(=O)N[C@H](Cc2ccccn2)C2CC(O)C2)C1=O (some centres not stated),-0.807%,3.8%,0.984%,-2.87%,15.8%
COc1c(F)ccc(C(=O)N2CCC3(CCCNC3)C2)c1F (configuration not stated),-4.17%,-2.26%,-1.05%,-5.73%,-17.4%
COc1ccccc1N1C(=O)CSc2c(c3ccccc3n2C)C1C(=O)NCc1ccc(F)cc1 (configuration not stated),-6.99%,-0.793%,2.75%,-2.7%,-1.83%
CC(C)(O)/C=C1/C(=O)C(C)(C)C(=O)C(C)(C)C1(O)O[C@@H]1O[C@H](COC(=O)c2cc(O)c(O)c(O)c2)[C@@H](O)[C@H](O)[C@H]1O (some centres not stated),-0.039%,-17.9%,0.237%,-27.3%,-3.7%

Compound,"activity change, negative = inhibition [1]","activity change, negative = inhibition [2]","activity change, negative = inhibition [3]","activity change, negative = inhibition [4]","activity change, negative = inhibition [5]"
CN(Cc1ccccc1)C(=O)Cn1c(=O)oc2cc(S(=O)(=O)N3CCCCC3)ccc21,-5.1%,4.37%,-2.32%,2.69%,-6.48%
COc1ccccc1OC1(C(=O)O)CCN(Cc2ccc(-c3ccn[nH]3)o2)CC1,-3.91%,-2.73%,1.31%,-0.92%,-18.1%
CC(C)CN1CCN(C(=O)CC2CCN(S(C)(=O)=O)C2)CC1 (configuration not stated),-3.72%,-4.71%,-2.91%,-6.49%,-10.3%
CN1CCC2(CCN3CCc4c(oc5ccccc45)C3C2)N(C)C1=O (configuration not stated),-2.91%,14.3%,1.74%,-1.58%,9.22%
CC(C)NC(=O)N1CC[C@H](N=C2Nc3cc(F)ccc3N(CC(F)F)c3ccc(Cl)cc32)C1,1.96%,4.48%,5.14%,-9.62%,0.694%
O=C(NCc1ccccc1-c1ccccc1C(=O)NCCc1ccccn1)OCc1ccccc1,-4.11%,5.67%,11.7%,-13.4%,-0.904%
Cc1cc2c(cc3n2CC(C)(C(=O)NC2CCCCCCC2)N(CCN(C)C2CCCCC2)C3=O)o1 (configuration not stated),1.35%,4.84%,3.18%,7.83%,0.335%
Cc1cc(NC(=O)CN(C)S(=O)(=O)c2ccc3[nH]c4c(c3c2)CCCC4)ccc1Br,0.612%,3.93%,2.83%,-4.75%,8.95%
O=c1c2ccccc2n2c(=O)n(Cc3c(F)cccc3Cl)nc2n1Cc1ccc(F)cc1,9.62%,2.55%,9.77%,12.3%,9.61%
COc1ccccc1CCNC(=O)c1ncn2c1C(=O)N(C1CC1)C(C)(C(=O)NC1CCCC1)C2 (configuration not stated),2.13%,0%,8.84%,1.28%,4.07%
CCc1ccc(N2C(=O)c3cc4sccc4n3CC2(C)C(=O)NC2CCCCCCC2)cc1 (configuration not stated),-1.12%,3.52%,3.1%,8.12%,-1.61%
CCCNC(=O)Cn1nc2nc(Nc3ccc(F)cc3)ccn2c1=O,-6.95%,1.52%,-1.96%,-4.79%,-4.62%
CC(C)Cn1c(=O)c2ccccc2n2c(SCC(=O)Nc3cccc(F)c3)nnc12,-0.804%,0%,7.03%,1.76%,3.01%
CC(C)NC(=O)c1ccc2c(=O)n(Cc3ccccc3)c3nn(CC(=O)Nc4ccccc4)c(=O)n3c2c1,-1.65%,-2.36%,-1.11%,-6.14%,-4.2%
COc1ccc(N2CCN(C(CNS(=O)(=O)c3ccc(OC)cc3)c3ccco3)CC2)cc1 (configuration not stated),11.6%,0.267%,8.82%,-1.38%,4.28%
CC[C@]1(O)C[C@H]2CN(CCC3C(=Nc4ccccc43)[C@@](C(=O)OC)(c3cc4c(cc3OC)N(C)[C@H]3[C@@](O)(C(N)=O)[C@H](O)[C@]5(CC)C=CCN6CC[C@]43[C@@H]65)C2)C1 (some centres not stated),-30.9%,,-5.52%,,
C[C@@H](CN1CCC(n2c(=O)[nH]c3cc(Cl)ccc32)CC1)NC(=O)c1ccc2ccccc2c1,-3.86%,0.532%,3.47%,-34.1%,-13.2%
CC1(C)CC[C@]2(C(=O)O[C@@H]3O[C@H](CO[C@@H]4O[C@H](CO)[C@@H](O)[C@H](O)[C@H]4O)[C@@H](O)[C@H](O[C@@H]4O[C@H](CO)[C@@H](O)[C@H](O)[C@H]4O)[C@H]3O)CC[C@]3(C)C(=CCC4[C@@]5(C)CC[C@H](O[C@@H]6OC[C@@H](O)[C@H](O)[C@H]6O)[C@@](C)(C(=O)O)C5CC[C@]43C)[C@@H]2C1 (some centres not stated),-2.06%,-2.64%,4.56%,-14.8%,-0.877%
CCc1ccc(-c2cc3n(n2)CC(C)(C(=O)NC2CCCCC2)N(CCN2CCCC2)C3=O)cc1 (configuration not stated),-2.21%,2.97%,-4.5%,0.43%,-3.07%

Compound,"activity change, negative = inhibition [1]","activity change, negative = inhibition [2]","activity change, negative = inhibition [3]","activity change, negative = inhibition [4]","activity change, negative = inhibition [5]"
CCCc1cc(C)n(C)c(=O)c1CN(C)C(=O)c1cc(-c2ccc(N3CCN(C(C)C)CC3)nc2)cc2c1cnn2C(C)C,5.26%,8.98%,-13.5%,-12.1%,-2.04%
CCCC(=O)C1(c2ccccc2)CCN(C(=O)[C@@H](Cc2ccc(OC)cc2)NC(=O)[C@@H](N)Cc2cncn2C)CC1,2.93%,-3.37%,-4.68%,-18.7%,-10.6%
Cc1cc(O)c(C(C)C)cc1O[C@@H]1O[C@H](CO)[C@@H](O)[C@H](O)[C@H]1O,0%,8.6%,9.28%,-3.54%,5.64%
CC(=O)OC1CC(C)C2(CCC3(CC(=O)OC3O)O2)C2(C)CCCC(C)(C)C12 (configuration not stated),-8.59%,-5.47%,4.94%,-19.5%,-0.17%
O=C1c2c(O)cc(O)cc2OC(c2ccc(O)c(O)c2)C1O (configuration not stated),-28.7% and 48.5%,1.78% and 0%,-3.88% and 0.681%,-4.77% and 10.3%,5.21% and -1.26%
Cc1ccc(Cn2c(=O)c3ccccc3n3c(SCC(=O)Nc4ccc(F)cc4)nnc23)cc1,6.12%,0%,14%,8.01%,5.62%
Cc1ccccc1CSc1nnc2n(C)c(=O)c3ccc(C(=O)NC4CCCCC4)cc3n12,1.01%,2.04%,7.76%,6.95%,7.92%
CCc1ccc(N2C(=O)c3cc(-c4ccco4)nn3CC2(C)C(=O)NC2CCCCC2)cc1 (configuration not stated),-1.71%,5.66%,-1.67%,1.33%,-5.11%
CCc1ccc(CNC(=O)c2cc3n(n2)CC(C)(C(=O)NC2CCCC2)N(CC)C3=O)cc1 (configuration not stated),5.78%,0.834%,3.38%,8.38%,2.12%
O=C(Cn1nc2n(CCc3ccccc3)c(=O)c3ccccc3n2c1=O)c1ccccc1,-1.46%,2.85%,3.8%,-7.02%,-5.04%
Cc1nn2c(SCC(=O)Nc3cccc(Cl)c3)nnc2[nH]c1=O,8.09%,2.92%,6.22%,4.89%,3.41%
C=Cc1ccc(CSc2nnc3n(CCC)c(=O)c4ccccc4n23)cc1,-10.9%,3.77%,-3.21%,-11.6%,1.65%
O=C(NCc1csc(-c2cnccn2)n1)C1NCCc2[nH]cnc21 (configuration not stated),-7.05%,-8.57%,-9.22%,-14.5%,-2.55%
Cc1ccc(CCNS(=O)(=O)c2ccc3[nH]c4c(c3c2)CCCC4)cc1,-3.89%,3.7%,2.24%,-7.76%,-6.36%
CCOc1ccccc1NC(=O)c1ncn2c1C(=O)N(C1CC1)C(C)(C(=O)NC1CCCC1)C2 (configuration not stated),-5.98%,1.69%,-7.21%,-12.1%,-7.96%
CN(C)CCCOc1nn(Cc2ccccc2)c2ccccc12,-4.19%,-11.4%,-10.8%,-21.1%,-13.8%
C[C@@H]1C(=O)O[C@H]2[C@H]1CC[C@@]1(C)C(=O)C=C[C@](C)(O)[C@H]21,3.99%,2.18%,6.83%,-12%,4.07%
COCC(=O)N[C@H]1C[C@H]2C(=O)NC[C@@H](CCC(=O)N3CCN(c4ccccn4)CC3)N2C1,0.331%,-0.109%,3.48%,-3.51%,-0.031%
